The source gives no read counts; variants with many changes may rest on few reads.
B1: CPEB3 Ribozyme (parent)
chain: UAACAGGGGGCCACAGCAGAAGCGUUCACGUCGCAGCCCCUGUCAGAUUCUGGUGAAUCUGCGAAUUCUGCUGUAUAUCUC

Variants of: B1
Assay: self-cleavage, relative activity (ratio to wild type); higher = more cleavage; in vitro, sequencing
Procedure, shortened: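 Relative activity was defined as the cleaved/total read fraction for a variant divided by the same fraction for the unmutated ribozyme. CPEB3 self-cleaving ribozyme libraries were made by rounds of error-prone PCR, barcoded, and transcribed in vitro with T7 RNA polymerase for 5 hours at 37°C, and cleavage ran through transcription plus a 15 min DNase I step before EDTA. Illumina sequencing of template-switched reverse transcripts gave the reads, and DNA sequencing mapped the barcodes. Averages come from three batches, using variants with at least 5 reads.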

Variant | self-cleavage
A15G U25C U26A U43C A75U | 0.08
A15G U25C U43C A45U U51C U69G U76C | 0
A15G U25C U43C U60C | 0.2
A15G U25C U43G A47U U80C | 0.29
A15G U25C U67C U74C | 0.19
A15G U25G A35G U48C U72C U76C | 0.09
A15G U26A A28G U51A U66C A75G | 0.07
A15G U26A A45G U58C A75G | 0.13
A15G U26A A45U U51C U60C | 0.11
A15G U26A A65G U66C A75G C81A | 0.28
A15G U26A C34G A35U | 0.27
A15G U26A G55A | 0.51
A15G U26A U31A A35G U41A U49C | 0.2
A15G U26A U41C A47G U67A U72C U80C | 0.41
A15G U26A U43G G63A | 0.12
A15G U26A U48C A56C | 0.12
A15G U26A U49C A75U U80C | 0.53
A15G U26A U66C | 0.23
A15G U26A U72C | 1.11
A15G U26C A28U A35U U60C G61U U69C | 0.12
A15G U26C A35U | 0.13

Variant | self-cleavage
A15G U26C A35U A45G U60C U69C | 0.18
A15G U26C A35U A65G | 0.21
A15G U26C A45C G70C | 0.2
A15G U26C A45G U54C | 0.38
A15G U26C A56U U74C | 0.21
A15G U26C A64U U78C | 0.19
A15G U26C C29U U74C | 0.37
A15G U26C C37U | 0.14
A15G U26C C39A U48C U60C | 0.08
A15G U26C C81U | 0.6
A15G U26C G30A A65G U72C A77G | 0.1
A15G U26C U41C U60A | 0.06
A15G U26C U54A U60A | 0.23
A15G U26C U66C | 0.31
A15G U26C U69A | 0.16
A15G U26G A45G U58C | 0.17
A15G U31A A47U U72C A75G U76C | 0.21
A15G U31A A56G A64G | 0.48
A15G U31A C34A U60C U69C A77G | 0.17
A15G U31A C71A | 0.09
A15G U31A U49A | 0.27

Variant | self-cleavage
A15G U31A U54C | 0.24
A15G U31A U80A | 0.59
A15G U31C U58C U66G U78C U80C | 0.07
A15G U31C U78C | 0.26
A15G U41A A45G C81U | 0.04
A15G U41A A47G A65G | 0.15
A15G U41A A64G U66A | 0.17
A15G U41A G46A | 0.08
A15G U41C A45G U60C A64U A75U | 0.35
A15G U41C A45U U60A U78C | 0.92
A15G U41C A47G | 0.62
A15G U41C A57G U67A | 0.18
A15G U41C A57G U78C | 0.41
A15G U41C C59A U78C | 0.34
A15G U41C G42U U54A | 0.13
A15G U41C G63U U72C A75G | 1.27
A15G U41C U43A A56U | 0.23
A15G U41C U51C A64G | 0.18
A15G U41C U54C U67A | 0.36
A15G U41C U60C | 0.27
A15G U41C U66C U67C | 0.43

Variant | self-cleavage
A15G U41G U67C U69C U72C | 0.21
A15G U43A A47G A64G | 0.67
A15G U43A A57G C79A | 1.01
A15G U43A U48C U69C | 0.32
A15G U43A U48C U80C | 0.7
A15G U43C A56U U58A U66C | 0.08
A15G U43C A56U U74A | 0.34
A15G U43C A57U A64G U78C | 0.09
A15G U43C U51C C62A U69C U78C C81A | 0.22
A15G U43G U49C | 0.31
A15G U43G U54C U58C U67A | 0
A15G U48C U60C U76C | 0.21
A15G U48C U66C U69G | 0.55
A15G U48C U67C U69C | 0.14
A15G U48G U54A A64G | 0.07
A15G U49A A56G | 0.42
A15G U49A A65U | 0.23
A15G U49A A75U U80C | 0.59
A15G U49A C71G U78C | 0.09
A15G U49C A64G | 0.2
A15G U49C A64G A75U U78A | 0.13

Reference: the RNAGym collection of RNA variant scans (doi:10.1093/nar/gkz1192)
